Results: patent publication EP4796129A1, “ANTI-NECTIN-4 ANTIBODY-DRUG CONJUGATE COMPRISING CAMPTOTHECIN DERIVATIVE” (Celltrion, Inc., priority 2023, dated 2025)

T1: recombinant human Nectin-4 protein (Homo sapiens, UniProt Q96NY8)
T1 sequence (Q96NY8 32-510): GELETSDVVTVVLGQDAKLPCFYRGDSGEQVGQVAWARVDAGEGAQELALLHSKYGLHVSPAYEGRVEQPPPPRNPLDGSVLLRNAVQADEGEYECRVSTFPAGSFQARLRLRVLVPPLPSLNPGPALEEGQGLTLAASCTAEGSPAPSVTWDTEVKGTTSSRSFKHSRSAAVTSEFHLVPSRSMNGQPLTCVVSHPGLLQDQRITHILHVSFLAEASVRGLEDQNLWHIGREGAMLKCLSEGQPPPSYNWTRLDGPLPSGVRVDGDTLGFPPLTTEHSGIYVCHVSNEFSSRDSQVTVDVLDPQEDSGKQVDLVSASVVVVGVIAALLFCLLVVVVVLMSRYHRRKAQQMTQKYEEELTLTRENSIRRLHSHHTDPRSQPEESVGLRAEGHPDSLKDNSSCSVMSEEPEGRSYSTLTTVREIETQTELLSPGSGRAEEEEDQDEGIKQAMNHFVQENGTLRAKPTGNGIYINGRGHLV

T2: recombinant human Nectin-1 (Homo sapiens, UniProt Q15223)
T2 sequence (Q15223 31-517): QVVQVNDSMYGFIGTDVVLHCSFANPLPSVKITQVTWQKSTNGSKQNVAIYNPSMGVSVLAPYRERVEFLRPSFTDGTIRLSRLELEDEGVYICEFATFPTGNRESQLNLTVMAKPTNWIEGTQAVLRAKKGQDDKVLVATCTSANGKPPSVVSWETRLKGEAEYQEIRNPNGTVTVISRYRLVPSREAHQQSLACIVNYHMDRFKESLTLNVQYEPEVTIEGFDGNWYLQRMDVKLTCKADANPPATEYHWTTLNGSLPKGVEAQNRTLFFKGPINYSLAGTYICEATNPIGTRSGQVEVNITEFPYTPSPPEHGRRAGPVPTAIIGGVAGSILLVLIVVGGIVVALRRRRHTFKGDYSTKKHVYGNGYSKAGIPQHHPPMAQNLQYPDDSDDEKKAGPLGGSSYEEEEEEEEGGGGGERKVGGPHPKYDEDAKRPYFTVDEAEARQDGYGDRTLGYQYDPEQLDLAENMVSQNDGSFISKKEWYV

T3: recombinant rat Nectin-4 (Rattus norvegicus, UniProt D3ZET1)
T3 sequence (D3ZET1 31-509): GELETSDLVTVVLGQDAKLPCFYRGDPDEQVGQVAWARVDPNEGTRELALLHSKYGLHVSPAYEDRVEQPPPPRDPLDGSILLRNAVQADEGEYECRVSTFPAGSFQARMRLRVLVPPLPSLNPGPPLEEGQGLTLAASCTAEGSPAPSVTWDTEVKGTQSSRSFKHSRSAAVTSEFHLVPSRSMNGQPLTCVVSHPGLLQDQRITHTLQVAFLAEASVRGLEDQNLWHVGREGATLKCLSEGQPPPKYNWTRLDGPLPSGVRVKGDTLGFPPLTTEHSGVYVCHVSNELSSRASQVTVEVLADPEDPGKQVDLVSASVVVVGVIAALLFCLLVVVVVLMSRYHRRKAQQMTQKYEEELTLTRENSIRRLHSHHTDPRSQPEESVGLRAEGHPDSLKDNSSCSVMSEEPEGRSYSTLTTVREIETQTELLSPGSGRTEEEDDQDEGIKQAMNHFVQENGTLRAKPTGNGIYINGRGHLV

T4: recombinant human Nectin-2 (Homo sapiens, UniProt Q92692)
T4 sequence (Q92692 32-538): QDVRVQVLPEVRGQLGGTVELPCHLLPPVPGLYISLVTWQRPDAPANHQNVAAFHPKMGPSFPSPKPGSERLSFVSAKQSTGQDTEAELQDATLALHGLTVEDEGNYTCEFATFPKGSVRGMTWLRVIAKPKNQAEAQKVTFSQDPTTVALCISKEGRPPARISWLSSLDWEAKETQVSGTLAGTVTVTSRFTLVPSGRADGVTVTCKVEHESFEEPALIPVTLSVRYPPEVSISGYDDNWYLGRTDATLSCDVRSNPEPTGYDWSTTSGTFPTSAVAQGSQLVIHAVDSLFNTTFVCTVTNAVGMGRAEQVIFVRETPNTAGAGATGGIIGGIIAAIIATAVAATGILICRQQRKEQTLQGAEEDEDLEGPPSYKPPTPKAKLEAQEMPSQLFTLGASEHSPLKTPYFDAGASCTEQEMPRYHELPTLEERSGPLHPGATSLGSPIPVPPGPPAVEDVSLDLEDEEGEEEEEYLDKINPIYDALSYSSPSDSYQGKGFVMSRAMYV

T5: recombinant mouse Nectin-4 (Mus musculus, UniProt Q8R007)
T5 sequence (Q8R007 31-508): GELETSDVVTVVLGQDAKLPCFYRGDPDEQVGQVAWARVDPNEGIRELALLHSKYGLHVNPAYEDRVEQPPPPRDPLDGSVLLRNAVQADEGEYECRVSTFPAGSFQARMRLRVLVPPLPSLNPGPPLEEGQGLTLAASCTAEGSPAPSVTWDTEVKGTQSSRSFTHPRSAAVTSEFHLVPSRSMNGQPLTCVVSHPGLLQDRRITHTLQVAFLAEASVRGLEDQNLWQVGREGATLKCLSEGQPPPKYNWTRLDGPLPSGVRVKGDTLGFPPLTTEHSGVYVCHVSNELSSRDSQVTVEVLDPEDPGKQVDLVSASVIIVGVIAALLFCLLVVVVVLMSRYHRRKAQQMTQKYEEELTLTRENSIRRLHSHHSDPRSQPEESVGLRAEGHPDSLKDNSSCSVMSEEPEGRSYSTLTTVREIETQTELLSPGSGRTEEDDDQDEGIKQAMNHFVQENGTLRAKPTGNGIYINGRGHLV

B1: Enfortumab-PBX-7016: ADC: payload PBX-7016, linker mc-GGFG, anti-Nectin-4 antibody (Enfortumab); DAR not stated where so labelled (conjugate)
heavy: EVQLVESGGGLVQPGGSLRLSCAASGFTFSSYNMNWVRQAPGKGLEWVSYISSSSSTIYYADSVKGRFTISRDNAKNSLSLQMNSLRDEDTAVYYCARAYYYGMDVWGQGTTVTVSSASTKGPSVFPLAPSSKSTSGGTAALGCLVKDYFPEPVTVSWNSGALTSGVHTFPAVLQSSGLYSLSSVVTVPSSSLGTQTYICNVNHKPSNTKVDKRV[human IgG1 Fc not given here]
light: DIQMTQSPSSVSASVGDRVTITCRASQGISGWLAWYQQKPGKAPKFLIYAASTLQSGVPSRFSGSGSGTDFTLTISSLQPEDFATYYCQQANSFPPTFGGGTKVEIKRTVAAPSVFIFPPSDEQLKSGTASVVCLLNNFYPREAKVQWKVDNALQSGNSQESVTEQDSKDSTYSLSSTLTLSKADYEKHKVYACEVTHQGLSSPVTKSFNRGEC
B2: Enf-PBX-7016 (DAR 7.9): Example 3 ADC made with 30 equivalents TCEP and 12 equivalents linker-payload; DAR 7.9 (conjugate)
heavy: B1 heavy
light: B1 light
B3: Enf-PBX-7016 (DAR 4.1): Example 3 ADC made with 12 equivalents TCEP and 6 equivalents linker-payload; DAR 4.1 (conjugate)
heavy: B1 heavy
light: B1 light

Assays:
[1] = target: T1, recombinant human Nectin-4 protein; experiment: ELISA binding to recombinant Nectin-4
[2] = target: recombinant human Nectin-3 (Homo sapiens, UniProt Q9NQS3); experiment: ELISA specificity within the nectin family; format: binding
Sequence of recombinant human Nectin-3 (Q9NQS3 58-549): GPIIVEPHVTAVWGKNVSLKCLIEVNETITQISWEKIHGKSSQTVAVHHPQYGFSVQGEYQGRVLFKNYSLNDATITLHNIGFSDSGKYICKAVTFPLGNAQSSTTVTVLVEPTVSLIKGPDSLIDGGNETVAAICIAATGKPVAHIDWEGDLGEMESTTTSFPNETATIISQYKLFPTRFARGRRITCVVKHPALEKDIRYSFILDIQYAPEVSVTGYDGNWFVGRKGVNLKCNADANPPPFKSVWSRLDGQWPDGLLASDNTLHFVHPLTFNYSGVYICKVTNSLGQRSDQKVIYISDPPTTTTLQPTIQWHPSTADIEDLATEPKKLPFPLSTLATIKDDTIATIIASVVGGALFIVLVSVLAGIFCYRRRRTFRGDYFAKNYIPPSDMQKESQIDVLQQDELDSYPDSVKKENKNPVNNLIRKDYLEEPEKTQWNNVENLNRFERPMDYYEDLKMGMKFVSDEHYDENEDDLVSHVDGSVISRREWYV

[3] = target: T2, recombinant human Nectin-1; experiment: ELISA specificity within the nectin family; format: binding
[4] = test system: SUM190PT (a breast cancer cell line)
recombinant rat Nectin-4 = target: T3, recombinant rat Nectin-4; experiment: ELISA binding to recombinant Nectin-4
[5] = target: T4, recombinant human Nectin-2; experiment: ELISA specificity within the nectin family; format: binding
[6] = target: recombinant cynomolgus monkey Nectin-4; experiment: ELISA binding to recombinant Nectin-4
[7] = target: T5, recombinant mouse Nectin-4; experiment: ELISA binding to recombinant Nectin-4
[8] = test system: bladder cancer xenograft model (BL9200); experiment: HuPrime bladder cancer xenograft model (BL9200) in NOD/SCID mice; format: in vivo, NOD/SCID strain female mice; conditions: for Tumor Volume (mean ± SEM), Day 25: number of mice in brackets

Row | Molecule | EC50 ([1]; Human Nectin-4) | binding to recombinant human Nectin-4 protein (in words) ([1]; specificity test) | binding to recombinant human Nectin-3 (in words) [2] | binding to recombinant human Nectin-1 (in words) [3] | cytotoxicity (in words) [4] | EC50 (recombinant rat Nectin-4) | binding to recombinant human Nectin-2 (in words) [5] | EC50 [6] | binding to mouse Nectin-4 (in words) [7] | TGI (%), Day 25 ([8]; 5 mg/kg i.v. QW × 3wks) | ΔT/ΔC (%), Day 25 ([8]; 5 mg/kg i.v. QW × 3wks) | Tumor Volume (mean ± SEM), Day 25 ([8]; 5 mg/kg i.v. QW × 3wks) | TGI (%), Day 25 ([8]; 10 mg/kg i.v. QW × 3wks) | ΔT/ΔC (%), Day 25 ([8]; 10 mg/kg i.v. QW × 3wks) | Tumor Volume (mean ± SEM), Day 25 ([8]; 10 mg/kg i.v. QW × 3wks)
1 | B1 | 8.31 ng/mL | specifically bound | did not bind | did not bind | enhanced cytotoxicity compared to isotype ADC | 9.88 ng/mL | did not bind | 7.94 ng/mL | minimal binding |  |  |  |  |  | 
2 | B2 |  |  |  |  |  |  |  |  |  | 109.2% | -9.2% | 15.03 +/- 4.49(10) mm^3 | 110.0% | -10.0% | 1.95 +/- 1.95(10) mm^3
3 | B3 |  |  |  |  |  |  |  |  |  | 104.2% | -4.2% | 95.26 +/- 21.57(10) mm^3 | 109.5% | -9.5% | 10.64 +/- 2.93(10) mm^3
